PMC9299179

Substrate: CCCCCCCCCCCCO
Test: purified protein
Conditions: 100 mM Tris pH 8.5, 100 mM NaCl, 25 °C, co-substrate O2

B1: long chain alcohol oxidase (LCAO), A0A075HNX4 (uncultured marine euryarchaeote) (protein)
chain: MAQGAQRKNFGHNQILRPSAAYTPVDEQEVLQILDRHRGQRIRAVGRLHSWSEAVTGDGVLLDLQRLNDVRLQSDGDQLVATVGAGCQIKRLLKELNREGATLHSLGLITAQTIAGAISTGTHGSGRNSMSHYVVGVRLACYDASTGQAIIEELSAGEPLQAARCSLGSLGIILAVRIRCREQYNVQEHFTESRRLLDVMDAEAPFPLQQFYLLPWRWSYFIQHRREDDRPRSRLARLYRLYWLGTMDYGLILQILFLERVARSRRLIRLAFRRIIPAFLIRNWRVTDRSSSMLVMRHDAFRHIEIELFVRRDQLADALGFTQEVIKIAGGRESALSADNQRRIEELGMQEALAGLHDQYCHHFPICVRRVLPDDTLISMASGAGEDWYALSFISYAKPARRAGFSLFASFMARSMSRLFHARPHWGKVCPLEADELTSLYPRFDAFRTVCNTLDPQGVFQNDWTTALLEADGQVGDFP
Km: 27.7 ± 3.8 µM
